In the RNAGym collection of RNA variant scans (doi:10.7554/elife.90254) one finds self-cleavage data, which are given here for 167 variants.

The source gives no read counts; variants with many changes may rest on few reads.

To fix the notation:
B1: LINE1-mini (parent)
chain: GGCAGAGCUCAACACAGCGUGGCAAAGUGGCUGUGGCUAGACUGCC

The variants in the data set derive from B1. Kind of data set: self-cleavage, relative activity (ratio to wild type); higher = more cleavage; in vitro, sequencing; the parent is a self-cleaving ribozyme.
Turning to C23G G35A A39U, the self-cleavage worked out at 0.58.
Regarding C23G U38C A39G, the self-cleavage came out at 0.6.
To G22U G27U G29U U38C belongs 0.37.
To G22U G27A G33U belongs 1.08; to C23A A26G C42U, 0.12; to C23A G29A G40C C42U U43C, 0.12.
For the variant C23A A24C G27U G29U, the self-cleavage came to 0.49.
To C23G G40C C42U belongs 0.01.
In the case of C23A C42A C46G, the self-cleavage was 0.05.
As for G22U A25G A39C, the figure is 0.31; as for G22U A39U U43C, 0.04.
As for G22C C37U C46A, the figure is 0.05; as for G22U A24G U28C U32A, 0.07; as for G22U G30A C37A, 0.
To C23G G27A G40A belongs 0.07.
Regarding G22U G36C C37U, the self-cleavage turned out to be 0.01.
As for C23G G27A U43A, the figure is 0.07; as for C23U C31A G35A A41C, 0.02; as for C23A A25C A41U, 0.3.
To C23A C31A A39U G40C belongs 0.02; to C23A U34G G44C, 0.04; to G22U C23A G29U G35U, 0.03.
To C23G A24C C31U belongs 0.08.
On to G22U G33U G44C, for which the self-cleavage was 0.05.
As for G22U U32A U43A, the figure is 0.02; as for G22U G30A G35A G36U C42G, 0.03; as for G22C C31U G36A U38A, 0.01.
To C23G A25U G30C belongs 0.4; to C23G C37U C45G, 0.01.
To C23G A25G G33C G35U G40U belongs 0.03.
For the variant C23A U28G U43A, the self-cleavage amounted to 0.04.
To G22U G30A A39U belongs 0.19; to G22U G30A A39G, 0.07; to C23G A24C U28G U32G, 0.02.
On to G22U C23A G35A C42U, for which the self-cleavage is 0.24.
Regarding G22U U32G U38A, the self-cleavage came out at 0.15.
Turning to G22U A39G C42G, the self-cleavage was determined as 0.
As for C23A G27A A41U U43A, the figure is 0.07.
To G22U G36A G40C belongs 0.06; to G22U C45A C46U, 0.24; to C23G G33A U34A, 0.04.
As to G22C G40A A41U C46U, the self-cleavage is 0.08.
G22C G30A C31G C45U: the self-cleavage came to 0.04.
As for G22C C37U A39G, the figure is 0.
Consider C23A A24C C31A, for which the self-cleavage is 0.64.
Take G22U G35C C46U: the self-cleavage amounted to 0.04.
As for G22U A26U A39U, the figure is 1.26; as for G22C G36U C45U, 0.06; as for G22C A41C C45U C46G, 0.11.
To G22C G30U A39U belongs 0.14; to C23U A24U G30U G40A, 0.15.
To C23A G30C G40U belongs 0.4.
As for G22U C37A A39C, the self-cleavage came out at 0.18.
As for C23G C31U A39U C45A, the figure is 0.01; as for C23G G36A A41C U43A, 0.05.
For C23G U28A C31U A41U U43C, the self-cleavage was 0.04.
As for C23A A26G C31U, the figure is 0.05; as for C23G G30U G35U, 0.06; as for C23A G27U U32C C37U C46G, 0.12.
As for G22U G27A G29A, the figure is 1.16.
Turning to G22U G30C C31G G40C, the self-cleavage is 0.02.
To G22U U38A C45A belongs 0.06.
C23G G27A C37G: the self-cleavage is 0.01.
To C23G G33U G36C belongs 0.02; to G22U A24C C37U G40A, 0.03; to C23G C37G C45A, 0.01.
To C23A A41G G44U C45G belongs 0.04.
As for C23G A25G G44U, the figure is 0.11; as for C23G C31A C46A, 0.1; as for C23A U32G A41U, 0.47.
With G22U G27A C31U C42G, the self-cleavage is 0.04.
As for G22C U28C G29A U38A, the figure is 0.02; as for C23A A39G G44C, 0.09; as for C23U A26C G29A G30U G36A U38C C46U, 0.03.
As for C23A A24G A41U, the figure is 0.33; as for C23A A25U A26G G30U, 2.92.
As for G22U A26C C46A, the figure is 0.81; as for C23A G30U G36A, 0.72; as for G22C U28C G29A, 0.14.
In the case of C23A G29A G33U G35C, the self-cleavage is 0.02.
To C23G G27C C37A belongs 0.
As for G22C G30U C37U, the figure is 0.06; as for C23G C45G C46U, 0.2; as for C23A G27A U38G A39C, 0.02.
As for C23G A25C C37A U38G, the figure is 0.01; as for C23G U43A C46G, 0.05.
For C23A G27A C42U C46U, the self-cleavage was found to be 0.28.
As for C23G U32C U34A, the figure is 0.04.
For the variant C23A G29U G33U, the self-cleavage stood at 0.07.
C23A A24U A41U: the self-cleavage turned out to be 1.06.
As for C23A G27C C37G, the figure is 0.02.
As for G22C C23G C45U, the figure is 0.69.
To G22U G30A U43G belongs 0.
On to G22C C23U G35U, for which the self-cleavage is 0.29.
To G22U G29A C42A belongs 0.2; to C23U C31U G40C, 0.02.
To C23G C37U A41G belongs 0.06.
To C23A A25C U43C belongs 0.07; to C23A A25C U43A, 0.02; to C23A A26U C46A, 1.05.
On to C23G G44U C45U, for which the self-cleavage was 0.06.
To G22U C31A C37A belongs 0.1; to C23A C31G G40A, 0.04.
As for G22U A24U C42U, the self-cleavage amounted to 0.14.
On to G22C G30A G44U, for which the self-cleavage was 0.03.
On to C23A G27U U38G U43C, for which the self-cleavage was found to be 0.01.
As for C23A G27C G33A G36U, the figure is 0.08; as for G22C G35C U43G, 0.04.
As for C23A A24C G27C C31A G33U C42U, the figure is 0.03; as for C23G G36C G44U, 0.
For C23G G36A A41C, the self-cleavage was determined as 0.14.
For the variant C23A U28A G40U C45G, the self-cleavage turned out to be 0.14.
As for C23G G40A A41U, the self-cleavage came to 0.06.
For the variant C23G G33U A39G C45A, the self-cleavage worked out at 0.03.
As for G22U A26U G35A, the figure is 0.04; as for C23G U34G G44A C46A, 0.03; as for G22U U28G C37A C42A, 0.18.
To C23G G29A C42A belongs 0.19; to C23U A26U C31U, 0.21.
As for C23U A41U C42G C46U, the figure is 0.01; as for C23U A26U G33U, 0.04; as for G22U C23U G27U G33C, 0.06.
C23G U38A C45G: the self-cleavage was 0.09.
To G22U A24U U43C belongs 0; to C23G U28C G29A G40C, 0.06.
To C23G U32A C37A belongs 0.12; to C23A G35U G36C, 0.24; to C23G G27U U28C, 0.38.
To C23A A24C C37U belongs 0.08; to G22U C31A U38G, 0.01.
For C23A A24U G40A C42A, the self-cleavage stood at 0.14.
As for C23G C31A G35U U38C C46U, the figure is 0.02; as for C23U C31U C45U, 0.4; as for C23A A25U U34C U43A, 0.03.
Consider C23A A24G G27U C37A, for which the self-cleavage was found to be 0.01.
As for G22C C23A G29A C37A, the figure is 0.01; as for C23A A24U G29U, 0.5.
To C23G A24G C46U belongs 0.42; to C23G C31A G33A A39C C45U, 0.08; to G22C A25U C45A, 0.37.
As for C23G A25U G27A A39C G40C, the figure is 0.03; as for C23A C31G G33U C46A, 0.03.
On to G22U G36U G40U C42A C45A, for which the self-cleavage was 0.1.
To C23A G35C U38G G44C belongs 0.01; to C23A A26C U38G, 0.02; to C23U A26U G40U, 0.02.
To G22U U38A C42U belongs 0.43; to G22U A24G U32C U34C, 0.07; to G22C C31A G33C A41G U43A, 0.01.
As for C23A U28A G30U, the figure is 0.38.
For the variant C23U C31U C46A, the self-cleavage turned out to be 0.52.
With C23U C31U C46U, the self-cleavage was 0.34.
As for G22C G27U G40A, the figure is 0.1; as for C23G G27U G35A G40U, 0.13.
To G22U G35U G36U U43A belongs 0.03; to C23G G30U C46G, 1.92.
To C23G G27A A39U belongs 0.98; to C23A A25G U28C U38A, 0.09; to G22U A26G U28G C37U G40C C46G, 0.13.
Consider C23A A24G G33C, for which the self-cleavage was 0.03.
For the variant C23G A26C U32A U38G, the self-cleavage came out at 0.02.
To C23A A26G U32C U38G C46G belongs 0.07; to G22C G30U C37U G40C C46A, 0.02; to C23G G36U A41C, 0.03.
To C23G G36U A41G belongs 0.03; to C23A G29U U34G, 0.32.
For the variant C23G U34C C42A, the self-cleavage worked out at 0.03.
